Measured values: PubChem BioAssay AID504466 (National Center for Advancing Translational Sciences (NCATS), 2011)
Hit rate of the full screen: of about 330,000 compounds, about 4,200 (1.3%) were called active. This list was built around the results that the source calls inconclusive (neither active nor inactive); the mix of calls is not that of the screen. Calls follow the shape of the dose curve; as a rule, active = well fitted activation curve with a large enough effect; inconclusive = small, poorly fitted or top-dose-only effect; inactive = no such curve, though single readings can be large or run the other way. Where the call is inconclusive, the potency comes from a doubtful curve fit.

Assay: qHTS screen for small molecules that induce genotoxicity in human embryonic kidney (HEK293T) cells expressing luciferase-tagged ELG1; also: nearly all actives have a fitted effect of over 60% in size; as to activity change, positive = activation: % of control where 0% means no effect
Details: HEK293T ELG1-luciferase reporter, luminescence, 16 h; series mostly up to 46 µM
How it was run: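 Quantitative HTS format in 1536-well plates. HEK293T ELG1-luciferase reporter cells receive test compound and are incubated 16 hr at 37 °C, 5% CO2; ONE-Glo added, 30 min room temperature, then luminescence read.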
Potency is read from the fitted curve at half-maximal effect; tags tell the direction and shape of the fitted curve.

SMILES | Potency | activity change, positive = activation
Cc1ccc(C=Nc2ccc(N(C)C)cc2)o1 | active: 20.6 µM | 
COc1ccc(Nc2cc(Nc3ccccc3)ncn2)cc1 | inconclusive: 3.26 µM [activator, partial curve, poor fit] | 
COc1ccccc1C(=O)NCCNC(=O)c1ccc(C)nc1 | inactive | 
O=C(CCCOc1ccc(Cl)cc1)N1CCCCC1 | active: 20.6 µM | 
COCC(=O)Nc1nnc(-c2ccc(C(C)(C)C)cc2)s1 | active: 3.66 µM | 
O=C(O)c1cc(-c2ccc(O)cc2)on1 | inactive | 
O=C(c1ccccc1Cc1ccccc1)N1CCN(S(=O)(=O)c2ccccc2Br)CC1 | inactive | 
Cc1noc(C)c1C(=O)Nc1nc2ccc(F)cc2s1 | inconclusive: 3.26 µM [activator, single point] | 
Cc1ccc2cc3c(nc2c1)N(Cc1ccco1)CC3 | inconclusive: 29.1 µM [activator, single point] | 
O=S(=O)(NCCN1CCCC1)c1ccc(C(F)(F)F)cc1 | inactive | 
O=C(/C=C/Nc1ccccc1F)c1ccc(Br)cc1 | active: 1.03 µM | 
COc1ccc(NC(=O)c2ccccc2C)cc1 | inconclusive: 9.2 µM [activator, partial curve] | 
Cc1cccc2sc(NC(=O)CSCc3ccccc3)nc12 | inactive | 
Cc1ccc(C)c(COC(=O)c2cccc(S(=O)(=O)N3CCCC3)c2)c1 | inactive | 
O=C(Nc1ccc2c(c1)COC2=O)c1ccc(Cl)c(Cl)c1 | inconclusive: 18.3 µM [activator, partial curve] | 
Cc1ccccc1C(=O)NC1CCN(CC(=O)N2CCCCC2C)CC1 (stereo unspecified) | inactive | 
COc1ccc2oc(C(=O)NC(C)(C)C)c(C)c2c1 | inconclusive: 13 µM [activator, partial curve] | 
CC1CCC2(CC1)NC(=O)N(CC(=O)c1ccc(Cl)s1)C2=O (stereo unspecified) | inactive | 
COc1ccccc1OC(C)C(=O)Nc1ccc2c(c1)n(C)c(=O)n2C (stereo unspecified) | inconclusive: 18.3 µM [activator, partial curve, poor fit] | 
COc1ccc2c(c1)c(C(=O)OCCN(C)C)c(C)n2C | inconclusive: 12.6 µM [activator, single point] | 
CC(NC(=O)C(C)N1CCN(Cc2ccccc2)CC1)c1ccc(F)cc1 (stereo unspecified) | inactive | 
CCn1c(C)nc2cc(C(=O)OCCC(F)(F)F)ccc21 | inconclusive: 11.2 µM [activator, single point] | 
CCOc1ccc2nc(N3CCC(C(=O)N4CCN(c5ccccn5)CC4)CC3)sc2c1 | active: 7.31 µM | 
Cc1nn(Cc2ccc(Cl)cc2)c2sc(C(=O)OCC(N)=O)cc12 | inactive | 
COc1ccc(N/C=C\C(=O)c2ccc3c(c2)OCO3)cc1 | inconclusive: 1.84 µM [activator, full curve] | 
CN(C)c1ccc(/C=C/C(=O)c2ccc(O)cc2)cc1[N+](=O)[O-] | inconclusive: 18.3 µM [activator, partial curve, poor fit] | 

SMILES | Potency | activity change, positive = activation
O=S(=O)(c1ccccc1F)N1CCN(c2nc(-c3cccnc3)nc3ccccc23)CC1 | inactive | 
O=C(O)CCCN=Cc1c(O)c2ccccc2oc1=O | inconclusive: 1.16 µM [activator, single point] | 
Oc1cccc(/C=N/N2CCCCC2)c1O | inconclusive: 23.1 µM [activator, single point] | 
CC(=O)c1sc(NC(=O)c2ccc(Cl)cc2)nc1C | inconclusive: 14.6 µM [activator, partial curve] | 
c1ccc(Cn2nc(-c3ccccc3)nc2-c2ccccc2)cc1 | inconclusive: 13 µM [activator, partial curve, poor fit] | 
COc1cc(NC(=O)c2cc(-c3ccco3)on2)cc(OC)c1OC | inactive | 
CC(C)OC(=O)c1ccc(Cn2nnc3ccccc3c2=O)cc1 | inconclusive: 32.6 µM [activator, partial curve, poor fit] | 
CCOc1ccc2nc(-c3ccccc3)[nH]c2c1 | inconclusive: 1.64 µM [activator, full curve] | 
COc1cccc(/C(C)=N/NC(=O)c2ccc(N(C)C)cc2)c1 | inconclusive: 9.2 µM [activator, partial curve, poor fit] | 
O=C(Nc1ccc(Br)cn1)c1ccc2ccccc2c1 | inconclusive: 4.11 µM [activator, full curve] | 
O=C(NNC(=O)c1ccccc1Cl)c1ccncc1 | inactive | 
CC(C)(C)N1C(=O)c2ccc(C(=O)Nc3nccs3)cc2C1=O | inconclusive: 4.11 µM [activator, full curve, poor fit] | 
COc1ccc(C2OC(=O)CC2C(=O)NCc2ccc(Cl)cc2)cc1OC (stereo unspecified) | inconclusive: 10.3 µM [activator, partial curve, poor fit] | 
Brc1cc2c(cc1/C=N/Nc1nc3ccccc3s1)OCO2 | active: 18.4 µM | 
CN1C(=O)C(C)(C)c2cc(S(=O)(=O)N3CCCC(C(=O)NCc4ccc(Cl)cc4)C3)ccc21 (stereo unspecified) | inactive | 
CC(C)Oc1cccc(-c2cc(C(=O)NN3CCOCC3)c3ccccc3n2)c1 | inactive | 
NNC(=O)CN1CCCc2ccccc21 | inconclusive: 4.61 µM [activator, full curve] | 
NS(=O)(=O)c1ccc(N/C=C/C(=O)c2ccc(Br)cc2)cc1 | inconclusive: 18.4 µM [activator, partial curve, poor fit] | 
CCSc1nnc(Nc2ccccc2)s1 | inconclusive: 10 µM [activator, partial curve] | 
O=C(CCN1C(=O)/C(=C/c2ccccc2)SC1=S)NCCCN1CCOCC1 | inactive | 
S=C(N/N=C/c1ccc(Cl)cc1)N1CCOCC1 | inconclusive: 32.6 µM [activator, single point] | 
O=C(C1CC1)N1CCN(c2nc3ccccc3s2)CC1 | inconclusive: 6.51 µM [activator, partial curve, poor fit] | 
CC1CCc2sc(C(=O)N=Nc3c(O)[nH]c4ccccc34)cc2C1 (stereo unspecified) | inactive | 
CCC(=O)c1ccc(O)cc1 | inactive | 
Cc1ccc(-c2noc(CNc3ccccc3)n2)cc1 | inconclusive: 29.1 µM [activator, partial curve, poor fit] | 
COc1ccccc1C1CC(c2cccs2)=Nc2ccccc2S1 (stereo unspecified) | inconclusive: 23.1 µM [activator, partial curve, poor fit] | 

SMILES | Potency | activity change, positive = activation
COC(=O)/C(=C1/Oc2ccc(C)cc2S1)C(F)(F)F | inconclusive: 18.4 µM [activator, partial curve, poor fit] | 
COC(=O)c1cc2c(s1)CS(=O)C2 (stereo unspecified) | inconclusive: 9.2 µM [activator, partial curve, poor fit] | 
O=C(CCl)Nc1c(C(=O)Nc2ccc3c(c2)OCCO3)oc2ccccc12 | inconclusive: 3.26 µM [activator, single point] | 
O=C(NCc1ccccc1Br)c1ccncc1 | inactive | 
Brc1ccc(N=Nc2ccc3ccccc3n2)cc1 | inconclusive: 1.46 µM [activator, partial curve] | 
COCCn1cc(C(=O)c2cc(Br)ccc2O)cc(C#N)c1=O | inactive | 
Cc1cc(Sc2nc(N)ncc2[N+](=O)[O-])ncn1 | inconclusive: 29.1 µM [activator, single point] | 
Cc1ccc(CNC(=O)C2CCC(CNS(=O)(=O)c3cccc4cccnc34)CC2)cc1 (stereo unspecified) |  | inactive: 0.193% [at 9.26 µM]
CSc1ccccc1-c1nnc(-c2ccc(Cl)c(Cl)c2)o1 | inconclusive: 8.2 µM [activator, partial curve, poor fit] | 
CN(C)S(=O)(=O)N1CCN(c2ccc(Cl)cc2)CC1 | inconclusive: 23.1 µM [activator, partial curve, poor fit] | 
Fc1ccc2c(c1)[C@H]1OCC[C@H]1[C@@H](c1ccco1)N2 | inactive | 
COc1ccc(CNc2ccc([N+](=O)[O-])cn2)cc1 | inconclusive: 18.3 µM [activator, partial curve] | 
Clc1ccc(-c2cn3cccnc3n2)cc1Cl | inconclusive: 16.4 µM [activator, partial curve, poor fit] | 
c1ccc(Oc2ccc3ccccc3n2)cc1 | inconclusive: 20.6 µM [activator, partial curve, poor fit] | 
O=C(NNC(=O)c1ccccc1Cl)c1ccc2c(=O)n3c(nc2c1)CCC3 | inactive | 
Nc1cc(N)nc(SCC(=O)Nc2ccc3c(c2)OCCCO3)n1 | inconclusive: 12.6 µM [activator, partial curve, poor fit] | 
COc1cccc(C(=O)NN2C(=S)N(c3ccccc3)C(=O)C2CC(N)=O)c1 (stereo unspecified) | inconclusive: 11.6 µM [activator, partial curve, poor fit] | 
O=C(/C=C/c1ccc(Cl)cc1)NC(=S)Nc1ccc(N2CCOCC2)c(Cl)c1 | inconclusive: 29.1 µM [activator, single point] | 
COc1ccc(C(=O)Nc2cccc(C(C)=O)c2)c(OC)c1OC | inconclusive: 20.6 µM [activator, partial curve] | 
CSc1nsc(N/N=C/c2ccccc2)c1C#N | inactive | 
Cc1ccc(CC(=O)NCC2CCCCC2)cc1 | inconclusive: 23.1 µM [activator, single point] | 
O=C(CSCC(=O)NC1CC1)Nc1ccc2ccccc2c1 | inconclusive: 29.1 µM [activator, partial curve, poor fit] | 
COc1cccc2sc3cc(C#CC4(O)CCCCC4)ccc3c(=O)c12 | inconclusive: 1.46 µM [activator, partial curve] | 
O=C(CCSc1ccc(Cl)cc1)N1CCN(c2ncccn2)CC1 | inconclusive: 18.4 µM [activator, single point] | 
